Patent EP4702986A1, “POLYPEPTIDE AND USE THEREOF” (Biocells (Beijing) Biotech Co., Ltd., priority 2023, dated 2024)
At least one structure is not confirmed: it was looked up by name or label, or the drawing left a doubt. Numbered stars: 1 amine (or outer) side, 2 acyl side, 3 side chain; on linkers, the order of the positions; unused ones are H or OH. Bridge positions count the residues as written; N and C are the ends. Square brackets hold non-standard residues; d marks the D form. Peptide text beside a SMILES is read from it. * marks the point of attachment. Fumaroyl = O=C(O)/C=C/C(=O)*; Suc = O=C(CCC(=O)[*:2])[*:1]; Abu = CC[C@H](N)C(=O)O

Target: T1, human ETB receptor (Homo sapiens, UniProt P24530)
T1 construct: expressed in transfected cells; host or cells: 293T-17 cells, transient transfection
T1 sequence (P24530 27-442): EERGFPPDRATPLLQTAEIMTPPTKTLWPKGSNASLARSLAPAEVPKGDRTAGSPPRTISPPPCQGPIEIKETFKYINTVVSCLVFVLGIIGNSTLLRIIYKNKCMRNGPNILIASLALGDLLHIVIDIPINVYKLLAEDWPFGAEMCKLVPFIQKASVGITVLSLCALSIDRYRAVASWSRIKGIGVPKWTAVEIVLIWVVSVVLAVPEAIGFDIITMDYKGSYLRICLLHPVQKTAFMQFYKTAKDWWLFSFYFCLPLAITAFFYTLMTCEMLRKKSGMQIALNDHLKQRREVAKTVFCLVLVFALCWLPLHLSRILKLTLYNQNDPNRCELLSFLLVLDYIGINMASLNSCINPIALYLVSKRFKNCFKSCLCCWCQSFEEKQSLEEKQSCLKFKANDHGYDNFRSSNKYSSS
Experiment: Determination of EC50 of polypeptides against human ETB receptor (IP-One Gq kit)
Format: cell-based
Conditions: 293T-17 cells transfected with PCDNA3.1-hETB; read-out: hETBR agonist activity EC50/nM
Experimental: 293T-17 cells were seeded at a density of 650,000 cells per well in a 6-well plate and cultured overnight in an incubator at 37°C and 5% CO2. Afterward, the cells were transfected with an expression vector, PCDNA3.1-hETB which contained a human ETB receptor gene, at a plasmid concentration of 2.5 µg per well. The cells were further cultured for 48 hours, and green fluorescence expression was observed under a fluorescence microscope. The cells were then digested with trypsin and counted. The activity of compounds on the human ETB receptor was determined with the IP-One Gq kit from Cisbio Bioassays. The cells were suspended in Stim Buffer provided in the kit and the cell suspension was added to a 96-well detection plate at 7 µL cell suspension (containing 30,000 cells) per well. The polypeptides to be tested (prepared according to the Preparation Example of the invention) were diluted in Stim B to obtain a gradient of 11 concentration points. For each concentration point, the polypeptides to be tested were dissolved in Stim B to be at a concentration of 2×, and added at 7 µL to the test cells, while 7 µL of PBS solution was added to the cells in the negative control wells. The plate was sealed and incubated at 37°C for 1 hour in a cell culture incubator. Detection wells, positive control wells containing human endothelin ET1 (ET1: […] (C1-C15,C3-C11)), and PBS control wells were each added with 3 µL of IP1 d2 working solution and 3 µL of IP1 Tb cryptotate Antibody working solution. The plate was then sealed and incubated in the dark at room temperature (25°C±5°C) for 1 hour. The plate seal was removed, and the […] at 665 nm and 620 nm was measured with an ID5 microplate reader. The ratio of the acceptor emission signal to the donor emission signal, i.e., (signal at 665 nm/signal at 620 nm)×10^4, was calculated for each well. With F representing the average value of values of signal at 665 nm/signal at 620 nm for the test samples at various concentrations, a scatterplot was plotted, where the abscissa represented the F value, and the ordinate represented the logarithmic value of the peptide concentration. A curve was fitted with an appropriate method to calculate EC50 values of the polypeptides against the human ETB receptor. Another method was provided for fitting a curve where activation rate of the test polypeptides at each concentration relative to the positive control sample human endothelin ET1 was calculated first with the method in Example 1, and a scatterplot was plotted, where the abscissa represented the activation rate, and the ordinate represented the logarithmic value of the polypeptide concentration. A curve was fitted with an appropriate method to calculate the EC50 values of the polypeptides against the human ETB receptor.

SMILES | EC50
CC[C@H](C)[C@H](NC(=O)[C@@H](NC(=O)[C@H](CC(=O)O)NC(=O)[C@H](CC(C)C)NC(=O)[C@H](Cc1c[nH]cn1)NC(=O)[C@H](C)NC(=O)[C@H](Cc1ccccc1)NC(=O)[C@H](Cc1ccc(O)cc1)NC(=O)[C@@H](NC(=O)[C@H](C)NC(=O)[C@H](CCC(=O)O)NC(=O)[C@H](CCC(=O)O)NC(=O)[C@H](CC(=O)O)NC(=O)CCC(=O)O)C(C)C)C(C)C)C(=O)N[C@@H](Cc1c[nH]c2ccccc12)C(=O)O [BX-7] (Suc-DEEAVYFAHLDVIW-OH) | 0.897 nM
CC[C@H](NC(=O)[C@H](CC(=O)O)NC(=O)[C@H](CC(C)C)NC(=O)[C@H](Cc1c[nH]cn1)NC(=O)[C@H](C)NC(=O)[C@H](Cc1ccccc1)NC(=O)[C@H](Cc1ccc(O)cc1)NC(=O)[C@@H](NC(=O)[C@H](C)NC(=O)[C@H](CCC(=O)O)NC(=O)[C@H](CCC(=O)O)NC(=O)[C@H](CC(=O)O)NC(=O)CCC(=O)O)C(C)C)C(=O)N[C@H](C(=O)N[C@@H](Cc1c[nH]c2ccccc12)C(=O)O)[C@@H](C)CC [BX-8] (Suc-DEEAVYFAHLD[Abu]IW-OH) | 1.36 nM
CC[C@H](C)[C@H](NC(=O)[C@@H]1CCCN1C(=O)[C@H](CC(=O)O)NC(=O)[C@H](CC(C)C)NC(=O)[C@H](Cc1c[nH]cn1)NC(=O)[C@H](C)NC(=O)[C@H](Cc1ccccc1)NC(=O)[C@H](Cc1ccc(O)cc1)NC(=O)[C@@H](NC(=O)[C@H](C)NC(=O)[C@H](CCC(=O)O)NC(=O)[C@H](CCC(=O)O)NC(=O)[C@H](CC(=O)O)NC(=O)CCC(=O)O)C(C)C)C(=O)N[C@@H](Cc1c[nH]c2ccccc12)C(=O)O [BX-10] (Suc-DEEAVYFAHLDPIW-OH) | 30.9 nM
CC[C@H](C)[C@H](NC(=O)[C@H](CC(=O)O)NC(=O)[C@H](CCCCN)NC(=O)[C@H](Cc1c[nH]cn1)NC(=O)[C@H](C)NC(=O)[C@H](Cc1ccccc1)NC(=O)[C@H](Cc1ccc(O)cc1)NC(=O)[C@H](Cc1ccccc1)NC(=O)[C@H](C)NC(=O)[C@H](CCC(=O)O)NC(=O)[C@H](CCC(=O)O)NC(=O)[C@H](CC(=O)O)NC(=O)/C=C/C(=O)O)C(=O)N[C@H](C(=O)N[C@@H](Cc1c[nH]c2ccccc12)C(=O)O)[C@@H](C)CC [BX-22] (Fumaroyl-DEEAFYFAHKDIIW-OH) | 17.4 nM
CC[C@H](NC(=O)[C@H](CC(=O)O)NC(=O)[C@H](CCCCN)NC(=O)[C@H](Cc1c[nH]cn1)NC(=O)[C@H](C)NC(=O)[C@H](Cc1ccccc1)NC(=O)[C@H](Cc1ccc(O)cc1)NC(=O)[C@@H](NC(=O)[C@H](C)NC(=O)[C@H](CCC(=O)O)NC(=O)[C@H](CCC(=O)O)NC(=O)[C@H](CC(=O)O)NC(=O)/C=C/C(=O)O)C(C)C)C(=O)N[C@H](C(=O)N[C@@H](Cc1c[nH]c2ccccc12)C(=O)O)[C@@H](C)CC [BX-24] (Fumaroyl-DEEAVYFAHKD[Abu]IW-OH) | 8.52 nM
CC[C@H](C)[C@H](NC(=O)[C@H](CC(=O)O)NC(=O)[C@H](CC(C)C)NC(=O)[C@H](Cc1c[nH]cn1)NC(=O)[C@H](C)NC(=O)[C@H](Cc1ccccc1)NC(=O)[C@H](Cc1ccc(O)cc1)NC(=O)[C@@H]1CSSC[C@H](NC(=O)[C@H](CCC(=O)O)NC(=O)[C@H](CC(=O)O)NC(=O)CCC(=O)O)C(=O)N[C@@H](CCC(=O)O)C(=O)N[C@@H](C)C(=O)N1)C(=O)N[C@H](C(=O)N[C@@H](Cc1c[nH]c2ccccc12)C(=O)O)[C@@H](C)CC [BX-38] (Suc-DECEACYFAHLDIIW-OH; disulfide 3-6) | 45.7 nM
CC[C@H](C)[C@H](NC(=O)[C@H](CC(=O)O)NC(=O)[C@H](CC(C)C)NC(=O)[C@H](Cc1c[nH]cn1)NC(=O)[C@H](C)NC(=O)[C@H](Cc1ccccc1)NC(=O)[C@H](Cc1ccc(O)cc1)NC(=O)[C@H](CCCCN)NC(=O)[C@H](C)NC(=O)[C@H](CCC(=O)O)NC(=O)[C@H](CCC(=O)O)NC(=O)[C@H](CC(=O)O)NC(=O)CCC(=O)O)C(=O)N[C@H](C(=O)N[C@@H](Cc1c[nH]c2ccccc12)C(=O)O)[C@@H](C)CC [BX-43] (Suc-DEEAKYFAHLDIIW-OH) | 4.77 nM
